# Experimental data as given in the RNAGym collection of RNA variant scans (doi:10.7554/elife.90254).
# Read counts are not given, so values of variants with three or more changes are uncertain.
# B1: LINE1-mini (parent)
# chain: GGCAGAGCUCAACACAGCGUGGCAAAGUGGCUGUGGCUAGACUGCC
# Variants of: B1
# Assay: self-cleavage, relative activity (ratio to wild type); higher = more cleavage; in vitro, sequencing; the parent is a self-cleaving ribozyme
row,Variant,self-cleavage
1,G27A G29U C31U C42G,0.03
2,U9G G21C C45G C46U,0.23
3,A4G C18G A39U C42U,0.08
4,C8A A12G A25U,0.01
5,C8U A26C G27U C31A G44C,0.04
6,A4U C37U G44A,0.04
7,G5U A11U U28G C31A C46G,0.05
8,C31U U34A G36A C37G,0.01
9,A4G A26U G33U,0.28
10,G1A C3A G35U,2.39
11,A4G C15U G33U G36U C46U,0.02
12,C3U C8A C13U C15A G30C,2.2
13,G17A G21C C23A G40C U43A C46G,0.01
14,A11U C15U C45G,0
15,G19A A24G C46A,0.91
16,U20G U34G G36U,0.02
17,A4C C10G C13G G19U U38A,0
18,G30C G35A A41G,0.07
19,A12C G27U A39U,0.03
20,A24G G30A U32G C45A,0.28
21,U28G G33U C37U,0.27
22,A14G G33U U34A C37G A39U C46G,0.02
23,A6U A11G G22A C37U C46A,0.01
24,C3U C8A A25G G27C G30C,0.11

row,Variant,self-cleavage
1,C8A C18G G29C G30C U38C G40A,0.03
2,G2U G27A C46G,0.08
3,G7A A16U G27A C46U,0.08
4,G5A C18A C23U U28G G40U,0.13
5,G1U C3U G19C,0.05
6,A26C U28C C42A,0.26
7,G2C A6C C13U C31G G40U,0.07
8,C10A A12C G17C C45U,0.02
9,A25U G27C G35A,0.08
10,U9G U20G G21U,0.04
11,A12G C31U U32A G44U,0.13
12,A11G A24C G29A A41U,0.01
13,U9A C10A C13G U20A G22U U34C C42A,0.02
14,G5U G22C A41U G44U,0.03
15,C8U G22U U38C C45A,0.66
16,C3G A24G A26G G27A C46A,0.24
17,C15A C23A G40A,0.07
18,A14U C15G C23G C46G,0.01
19,C18U C23U A26U U28A G35C,0.02
20,G1U G19U A39U,0.14
21,G2U A25C G27A,0.04
22,C3A G5C G33C,0.08
23,A16G U20A C42G,0.01
24,G1C A11C C13G G27A U32G U34A G44U,0.01

row,Variant,self-cleavage
1,G19C U34A C42A G44A,0.33
2,G30A C31G C37U,0.02
3,G1C U32G A41G,0.06
4,C13U C15U C46A,0.25
5,C3A C18U G29U C37A G40C,0.24
6,A12G U20G G36A,0.02
7,U9G C10U G27U G33U,0.08
8,G21U G36A C37U G40C,0.15
9,G5U G30A U34G,0.03
10,G29U G33A G35U A41G,0.04
11,C15U C18A A26G G30U A41G C42U,0.04
12,C10U G29U C31A G36C,0.06
13,G19A U20G A24C G27A C31A G36U,0.02
14,G5U C8U C15A,0.26
15,A12U G35C G36U,0.04
16,C8G G21U C23A A39G,0.02
17,C10G U28A U32C C46A,0
18,A16U G17U U28C C42U,0.01
19,G2C A4U C10A C18U,0.04
20,G17U G27U U28C,0.38
21,A4U G35U G44C,0.05
22,G29U C31U U32G G36U,0.04
23,A11U C13G C15U C46G,0.03
24,U9C U20A G44A,0.01

row,Variant,self-cleavage
1,G5A A14C C31U C37G A39U C42G,0
2,G17C G21U G27C C45A,1.63
3,G2C A12C A14U U32G G33A U34G,0.01
4,C3A G5C A26U C37G G44A,0.12
5,G1U A16C G29U,0.05
6,C3G G22C C37A,0.08
7,C15A U28A G33A C45A,0.04
8,A16G G19A G21U A26G,0.76
9,C15U A24G U32G,0.3
10,G1A C23A A25G U28C A39G C45G,0.02
11,A26U U38C A41G,0.38
12,A26U U38A C45G,0.32
13,G5C C18U U28G,0.01
14,G17C G27C C31G,0.03
15,G2A G7U U20C G35A C46G,0.07
16,C3G G5A C31G G33A,0.12
17,C13G G30U G35A,0.06
18,C3A G21U G29C A39G,0.18
19,A4C A6G C15U U43A,0.17
20,U9A C10G G29C C45G,0
21,G21U A25G G35C,0.06
22,C23A A25C G29U,0.43
23,G1A G2A G19C G27C C31U G36A U43G,0.01
24,G5C G7A G22C G27U A39C,0.07

row,Variant,self-cleavage
1,G30A U34C A39G,0.05
2,C10G C13A A41G,0
3,A16C U20G C23U C31G,0.02
4,A11U U32A C42A G44U,0.01
5,C10A G17U A26C A41G,0
6,C31A U32G G35A,0.05
7,U9C G21A U28A,0.04
8,C8A G27C C31U G33C A39U,0.03
9,A11U G29C C42A,0.01
10,G17C G21U C23A,2.14
11,U9A U38A C42G,0.02
12,C10A C23U G27U,0.02
13,C10A A26C G29U U34A G35A,0.02
14,G29U U32A C37A U38A,0.02
15,C8U G17A G29U,0.36
16,G1U C10U A11G A26C C31A C37U C46G,0.01
17,G5U G7C U9C G19C A26U C42U,0.01
18,A14U A24G C46A,0.06
19,G7C A12G G17A U28C U32C U38A,0.26
20,G5U A24G G29U,0.12
21,A12G A14U A26G U32C,0
22,C13G G29C G33C G35U C37U,0.06
23,C13U G27C U28C U32G G36U G44A,0.01
24,G2U G17U C18A A24U U32C,0.04

row,Variant,self-cleavage
1,G5U G30A G33U C37U,0.17
2,G7A G29U U32A G33C,0.14
3,G5U U20G A24C G44U,0.03
4,A4G C23A A24U,0.69
5,A6G A12G G27A,0.02
6,G2C G19C A39C U43A,0
7,G2U U9G G21A C23U G29A,0.02
8,U9C C10U G17A A25U,0.03
9,C13U G40C C46G,0.19
10,C8G C18A G21C G44U,0.03
11,A11G A16G G29A G33U,0
12,G17U G21U G27C,0.19
13,G1A C3A G21A G35C,0.25
14,G1U C45U C46A,0.29
15,A12C A14C G22U G33A U38A G44A C46U,0
16,U20C G22C A24C A26C G27U U34G G44C,0.01
17,C3G U20A G35U G36U C37G,1.25
18,G1C G36C U38A C42A,0
19,C8U A16G G17A G36C,0.07
20,C8U C10U A12G A24U G35U U43A,0
21,G2C C15A A25C G35C,0.16
22,G2U G5C G33U,0.01
23,C3A G7C U20A A25U G36C C45A,0.03
24,U9G C13A A25G C37A C46U,0.16

row,Variant,self-cleavage
1,C10U G17C C18A A41G,0.04
2,A6C G21U G33C,0.03
3,C8G A24C U34C,0.07
4,U9A A12U G30U U34G C45A,0.03
5,A4C A12G U32C G35U G44C C46A,0.08
6,U9A C13G G27A U28C G29U C37U,0.16
7,C10U A24C G27C C45A C46A,0.05
8,U20C G33A G40U,0.3
9,G17C C31U G35A C37G,0.01
10,U20G G27U C31G G44C,0.01
11,C18A A26G U28G C31U U34G,0
12,G5A C23U U32C,0.05
13,C3A G21U A25U G40A,0.21
14,G1A C15A G21U G27C,0.1
15,G2C U9G U34G C45A,0.09
16,C18G G27U G29C C42U,0.12
17,C13A U20C C31A,0.03
18,G1C C8A G35A,0.03
19,C3U G5A G29A,0.28
20,G5U C23A C42G U43G G44U,0.01
21,A6G C8U G27A G35U G36A C37U,0.19
22,U9A G27U G30A,0.18
23,G21C G29U C31U U34A G40C U43G,0.01
